Measurements from PubChem BioAssay (NCI).
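Each compound was tested at five concentrations against cells in 96-well plates for 48 hours. TGI is the concentration that stops growth completely.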 Not every entry of the source has a single result; some have several. They are shown here; other results are not. The source may hold further records. Records of one sample usually come from different ranges of test concentrations, which the source does not state; a value can be the end of its range.

Tests used:
Assay in all cases: growth of human tumour cells (NCI), 48 h
SNB-19 CNS = test system: SNB-19 CNS
MCF7 breast = test system: MCF7 breast
EKVX NSCLC = test system: EKVX NSCLC
IGROV1 ovarian = test system: IGROV1 ovarian
HCT-116 colon = test system: HCT-116 colon

SMILES: CC(C)C[C@H](NC(=O)[C@@H]1CCCCCCCCCCC(=O)N[C@@H](CC(=O)N2CCC[C@@H]2C2CCCC2)C(=O)N1)B(O)O
- TGI (SNB-19 CNS): 332 nM and > 100 µM
- TGI (MCF7 breast): 112 nM and 43.9 µM
- TGI (EKVX NSCLC): 472 nM and 14.3 µM
- TGI (IGROV1 ovarian): 23.8 nM and 1.5 µM
- TGI (HCT-116 colon): 7.28 nM and 1.76 µM
